Experimental data: PubChem BioAssay AID686978 (National Center for Advancing Translational Sciences (NCATS), 2013)
The whole screen tested about 420,000 compounds, of which about 64,000 (15%) were called active. The inconclusive results got no clear call from the source; some entries with a clear call stand among them for comparison. Calls follow the shape of the dose curve; as a rule, active = well fitted inhibition curve with a large enough effect; inconclusive = small, poorly fitted or top-dose-only effect; inactive = flat fitted curve, though single readings scatter. Potencies of inconclusive entries are left out as doubtful fits. More than one record can exist for a structure, and the calls need not agree.

Assay: qHTS for Inhibitors of human tyrosyl-DNA phosphodiesterase 1 (TDP1): qHTS in cells in absence of CPT; also: nearly all actives have a fitted effect of over 55% in size
Details: DT40 Tdp1-/- hTDP1 cells, no CPT, ATP luminescence, 48 h; activity change, negative = growth inhibition: at 46.2 µM (top of the series) unless noted
Method in brief: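 Compound effects on proliferation are scored in DT40 Tdp1-/-;hTDP1 cells in the absence of CPT. ATP levels (CellTiter-Glo luminescence) are recorded after a ≥48 hr, 37 °C incubation.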
% is scaled to controls: 0 for no effect and ±100 for the full control effect; potency is read from the fitted curve at half-maximal effect; tags tell the direction and shape of the fitted curve.

SMILES | Potency | activity change, negative = growth inhibition
COc1ccc(C)cc1NC(=S)NNC(=O)c1c(Br)cnn1C | inconclusive [inhibitor, partial curve] | –
CC1(C)OC(=O)C2=C(C[C@@H](CCc3ccccc3)O[C@H]2C2CCCC2)O1 | inconclusive [inhibitor, single point] | –
COc1cc(-n2c(C)nc3cc(C(=O)NCC4CCCO4)ccc32)cc(OC)c1OC (centres undefined) | inactive | –
C=CCN1C(=O)c2ccc(C(=O)Nc3ccccn3)cc2C1=O | inactive | –
Cc1cc(C)cc(OCC(=O)OCC(=O)N2CCc3ccccc32)c1 | inactive | –
Cc1c(C)c2cc(Cl)c(OCc3nn[nH]n3)cc2oc1=O | – | inconclusive: -37.6% [inhibitor]
O=C(NCc1ccccc1)c1c(Cl)nc(Cl)c(Cl)c1Cl | active: 18.4 µM | –
CCOC(=O)N1CCN(CC(=O)N2c3ccccc3CCc3ccccc32)CC1 | inconclusive [inhibitor, single point] | –
O=C(Cc1n[nH]c(=O)[nH]c1=O)N/N=C/c1c(O)ccc2ccccc12 | inactive | –
CC(=O)NC(c1ccccc1)c1nc(-c2cccc(C(C)C)c2)cs1 (centres undefined) | – | inconclusive: -31.5% [inhibitor]
CC1(C)CC(=O)C2=C(C1)NCN(Cc1ccc3c(c1)OCO3)C2 | inconclusive [inhibitor, single point] | –
COC(=O)CCC(=O)c1ccn(S(=O)(=O)c2ccccc2)c1 | inactive | –
CN1CCN(C(=O)c2cnn3c(C(F)(F)F)cc(-c4ccc5c(c4)OCO5)nc23)CC1 | inconclusive [inhibitor, single point] | –
O=C(NCc1ccccn1)c1ccc(COc2ccc(Cl)cc2)o1 | inconclusive [inhibitor, partial curve] | –
CCCC(C(=O)NC(C)(C)C)N(Cc1ccc(F)cc1)C(=O)c1snc(C(N)=O)c1N (centres undefined) | inconclusive [inhibitor, single point] | –
CC(=O)Oc1oc(-c2ccccc2)nc1C=Nc1ccc(N(C)C)cc1 | inconclusive [inhibitor, single point] | –
CSc1ccc(CN2CCC2(C)C(=O)NCc2cccs2)cc1 (centres undefined) | inconclusive [inhibitor, single point] | –
Cc1ccc2oc(=O)n(CCCOc3ccc(Cl)cc3)c2c1 | inconclusive [inhibitor, partial curve, poor fit] | –
CC1(Oc2cccc(C#N)c2)CCN(Cc2ccccc2OC(F)F)C1 (centres undefined) | inconclusive [inhibitor, single point] | –
COc1cc(/C=C/C(=O)N2CCN(c3ccccn3)CC2)cc(OC)c1OC | active: 23.1 µM | –
CC1CCCCC1NC(=O)C1Cc2ccccc2CN1S(C)(=O)=O (centres undefined) | inactive | –
CC(C)CN(C(=O)CSc1nn(-c2ccc(Cl)cc2)c(=S)s1)C1CCS(=O)(=O)C1 (centres undefined) | active: 18.4 µM | –
O=C(NC1CCS(=O)(=O)C1)c1cccc(Cl)c1 (centres undefined) | inactive | –
CN(C)CCCNC(=O)Cc1ccc(Br)cc1 | inactive | –
COc1ccc(OC)c(C2=NOC(C(=O)NCCN3CCOCC3)C2)c1 (centres undefined) | inactive | –

SMILES | Potency | activity change, negative = growth inhibition
Cc1ccc(C(=O)N/C(=C\c2ccccc2)C(=O)NCc2cccnc2)cc1 | inconclusive [inhibitor, partial curve, poor fit] | –
CCCCCCCC(=O)N/N=C(/C)c1c(O)cc(C)oc1=O | inconclusive [inhibitor, single point] | –
CCCc1ccc(C(=O)NNc2cc(Cl)ccc2Cl)cc1 | active: 23.1 µM | –
O=C(NN=C1CCCCCCCCCCC1)c1cccc(S(=O)(=O)N2CCOCC2)c1 | inactive | –
COc1ccccc1CNC(=O)COC(=O)CCN=C1NS(=O)(=O)c2ccccc21 | inactive | –
Cc1ccc(NC(=O)c2sc3ncnc(N4CCN(c5ccccn5)CC4)c3c2C)c(C)c1 | active: 18.4 µM | –
COc1ccc2c(c1)OCC(Cc1ccc(OC)c(OC)c1)C2=O (centres undefined) | active: 13 µM | –
CSc1ccccc1NC(=O)c1c(Br)cnn1C | inconclusive [inhibitor, single point] | –
COC1=CC(=O)c2nc(Cl)ccc2C1=O | active: 1.03 µM | –
COc1ccc2c(c1)C(=O)CC(c1ccc3c(c1)OCCO3)O2 (centres undefined) | inconclusive [inhibitor, partial curve] | –
CCCCN(CCCC)C(=O)c1sc2nc(N3CCOCC3)c3c(c2c1N)CCCC3 | inconclusive [inhibitor, single point] | –
CC(=O)Nc1ccc(S(=O)(=O)N2CCN=C2SCc2ccc(C)cc2)cc1 | inconclusive [inhibitor, partial curve, poor fit] | –
Cc1cc(C)cc(NC(=S)NCCN(C2CCCCC2)C2CCCC2)c1 | inconclusive [inhibitor, single point] | –
CCn1cnc2cc(NCc3ccc(OC)cc3)ccc21 | inconclusive [inhibitor, partial curve] | –
Nc1cc(S(=O)(=O)N2CCOCC2)ccc1Oc1ccc(F)cc1 | inconclusive [inhibitor, single point] | –
CCOc1ccc(NS(=O)(=O)c2ccc(C(=O)NCC(c3ccc(OC)cc3)N3CCOCC3)cc2)cc1 (centres undefined) | inconclusive [inhibitor, single point] | –
CCc1ccc2cccc3c2c1N=CN3C | inactive | –
CNC(CC(=O)c1ccc([N+](=O)[O-])cc1)C(Cl)(Cl)Cl (centres undefined) | active: 2.59 µM | –
CCN(CC)C(=O)Cn1ncc2c1-c1ccccc1OC2 | inconclusive [inhibitor, single point] | –
N#CC1(c2ccccc2)CCC(=O)N1Cc1ccccc1 (centres undefined) | inconclusive [inhibitor, partial curve, poor fit] | –
O=C(Nc1cccc(Cl)c1)c1csc([C@H]2C[C@H](O)[C@@H](CO)O2)n1 | inconclusive [inhibitor, partial curve] | –
COc1ccc2oc(C(=O)OC(C)C(=O)N(C)c3ccccc3)c(C)c2c1 (centres undefined) | inconclusive [inhibitor, single point] | –
O=[N+]([O-])c1ccc(N2CCN(Cc3cccc([N+](=O)[O-])c3)CC2)cc1 | active: 4.11 µM | –
CC(C)/C=C/CN1CCN(CCCc2ccccc2)C(CCO)C1 (centres undefined) | inconclusive [inhibitor, single point] | –
Cc1cc(C)n(-c2ccc(C(=O)NCC3Cc4cc(-c5cnccn5)ccc4O3)cc2)n1 (centres undefined) | inactive | –

SMILES | Potency | activity change, negative = growth inhibition
O=C(/C=C/Nc1ccc(Oc2ccccc2Cl)cc1)c1ccco1 | active: 14.6 µM | –
O=C(Cn1c(=O)n(CC2CCCO2)c(=O)c2ccccc21)Nc1cccc(Cl)c1 (centres undefined) | inconclusive [inhibitor, single point] | –
CCNC(=O)NC(=O)C(C)OC(=O)c1oc2ccccc2c1CSC1CCCCC1 (centres undefined) | inconclusive [inhibitor, single point] | –
COc1cc(OC)c(Nc2nc3ccccc3nc2-n2nc(C)cc2C)cc1Cl | – | inconclusive: -36.3% [inhibitor]
COC(=O)c1ccccc1NC(=O)COC(=O)c1ccc(C)c(NC(=O)c2ccco2)c1 | inconclusive [inhibitor, partial curve] | –
CCN(C(=O)CCc1ccccc1)C1CCCCC1 | inconclusive [inhibitor, partial curve] | –
O=[N+]([O-])c1ccc(-c2cc3ccccc3[nH]2)cc1 | inconclusive [inhibitor, single point] | –
COc1cc(C(=O)Oc2ccc(Br)cc2C(=S)N2CCOCC2)cc(OC)c1OC | inconclusive [inhibitor, partial curve] | –
CCOc1ccccc1NC(=O)Nc1cnccn1 | inactive | –
COc1ccc(-c2csc(Nc3cccc(C)n3)n2)cc1C | inconclusive [inhibitor, single point] | –
CS(=O)(=O)c1ccc(C(=O)Nc2ccc(N3CCOCC3)cc2)c(Cl)c1 | – | inconclusive: -29.6% [inhibitor]
COC(=O)c1ccc(COc2ccccc2/C=C(\C#N)C(=O)Nc2ccccc2C)cc1 | inactive | –
COc1ccc(/C=C(/C#N)C(=O)NC2CCCCC2)cc1Br | inconclusive [inhibitor, single point] | –
C=CCSc1nc2sc(C)c(C)c2c(=O)[nH]1 | inconclusive [inhibitor, single point] | –
Cc1oc2ccc(O)c(CN(C)C)c2c1C(=O)c1ccccc1 | inconclusive [inhibitor, partial curve] | –
CC1CCC(C(C)C)C(OCC[N+](C)(C)C)C1 (centres undefined) | inconclusive [inhibitor, single point] | –
C[C@@H](C(=O)NCCc1ccccc1F)N1C(=O)N2CCc3c([nH]c4ccccc34)[C@@]2(C)C1=O | active: 9.2 µM | –
NC(=O)c1cc(-c2ccccc2)sc1NC(=O)Cc1ccc(S(=O)(=O)N2CCOCC2)s1 | inactive | –
C=CCOC(=O)C1=C[C@@H](c2ccc(C(F)(F)F)cc2)[C@H](CCCO)[C@@H](OCC)O1 | active: 11.6 µM | –
Cc1csc(NC(=O)c2ccc(OCC3CCCO3)cc2)n1 (centres undefined) | inconclusive [inhibitor, partial curve] | –
Cc1ccc(N)cc1O | active: 6.86 µM | –
N#Cc1c(N(CCO)CCO)nc(N)c2c(N)nc3c(c12)CC(=O)N3CC1CCCO1 (centres undefined) | inactive | –
COCCn1c(=O)c(-c2cccs2)nc2cnc(Nc3ccccc3)nc21 | inactive | –
CC(=O)c1c(C)[nH]c(C(=O)CSc2nnc(N)s2)c1C | inconclusive [inhibitor, partial curve] | –
